Experimental data published in PubChem BioAssay (NCI).
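Step 1: Grow cells in 96-well plates. Step 2: Expose to compound for 48 hours at 5 concentrations. Step 3: Interpolate endpoints linearly; if unreached, use highest concentration. GI50 = concentration required for 50% inhibition of growth. TGI marks complete inhibition of growth.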

Test system: NCI-H322M lung
Assay: inhibition of tumour cell growth, NCI panel, 48 h

O=C(NO)c1ccc(CNC(=O)[C@H]2Cc3c([nH]c4ccccc34)[C@H](c3ccc(Cl)cc3)N2)cc1
GI50: 1.62 µM | TGI: 19.1 µM
